# Data reported in PubChem BioAssay (Tox21).
# The inconclusive results got no clear call from the source; some entries with a clear call stand among them for comparison. For some of these results: A potency beside an inconclusive call is a rough fit, not a confirmed value. Activity calls are given as the source filed them. Unless noted, calls come from the whole dose curve; as a rule, active = well fitted curve in the direction sought with a large enough effect in the repeat runs; inconclusive = weak or mixed curves; inactive = no such curve, though single readings can be large; an effect the other way counts as inactive or inconclusive.
# Experiments:
# [1] = target: Estrogen receptor (Homo sapiens) (UniProt P03372); assay: qHTS assay to identify small molecule antagonists of the estrogen receptor alpha (ER-alpha) signaling pathway using the BG1 cell line in the presence of 0.1 nM 17-beta-estradiol (AID 1259244); note: nearly all actives have a fitted effect of over 50% in size
# Sequence of UniProt P03372 (P03372 whole entry, looked up): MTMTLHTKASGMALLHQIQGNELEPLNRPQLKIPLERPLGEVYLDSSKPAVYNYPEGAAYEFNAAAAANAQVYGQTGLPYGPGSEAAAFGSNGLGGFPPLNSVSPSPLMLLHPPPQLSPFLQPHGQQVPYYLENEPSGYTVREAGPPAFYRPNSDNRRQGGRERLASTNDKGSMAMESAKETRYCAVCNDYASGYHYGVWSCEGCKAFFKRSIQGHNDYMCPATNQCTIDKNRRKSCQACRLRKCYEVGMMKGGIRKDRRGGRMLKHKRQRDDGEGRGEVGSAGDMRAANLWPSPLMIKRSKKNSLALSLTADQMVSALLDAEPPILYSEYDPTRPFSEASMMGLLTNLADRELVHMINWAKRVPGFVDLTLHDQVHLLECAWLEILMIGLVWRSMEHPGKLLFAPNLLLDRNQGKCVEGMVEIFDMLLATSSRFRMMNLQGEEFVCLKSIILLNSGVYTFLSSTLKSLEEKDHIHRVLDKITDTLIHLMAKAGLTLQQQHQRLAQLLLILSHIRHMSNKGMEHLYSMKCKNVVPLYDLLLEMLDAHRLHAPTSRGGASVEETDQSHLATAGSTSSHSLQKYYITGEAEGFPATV
# Procedure, shortened: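 Estradiol at 0.1 nM (final) stimulates the endogenous ER-alpha of VM7Luc4E2 cells carrying an ERE-driven luciferase; compounds are co-incubated 22 h at 37C and luciferase output quantified by luminescence.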
# [2] = qHTS assay to identify small molecule phospholipidosis (PLD) inducers (AID 1259344; active = well fitted curve in the direction sought with a large enough effect; inconclusive = small, poorly fitted or top-dose-only effect, or another doubt; inactive = no such curve, though single readings can be large; an effect the other way counts as inactive or inconclusive)
# Procedure, shortened: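 Phospholipidosis is scored by imaging LipidTOX-stained pits in HepG2 cells exposed to compound for 24 h at 37 C; pit counts and integrated intensities per well and per cell serve as outputs.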
# [3] = target: Estrogen receptor beta (Homo sapiens) (UniProt Q92731); assay: qHTS assay to identify small molecule antagonists of the estrogen receptor beta (ER-beta) signaling pathway (AID 1259378; active = well fitted inhibition curve with a large enough effect in the signal ratio in the repeat runs, not every such curve was filed as active; inconclusive = weak or mixed curves, or effect the other way; inactive = no such curve, though single readings can be large or run the other way; the % refers to the signal ratio; for activity, negative = inhibition: % is set by controls: 0 for no effect and ±100 for the full control effect); conditions: ER-beta-UAS-bla HEK293T, beta-lactamase FRET ratio, 16 h; activity, negative = inhibition: at 92.4 µM (top of the series) unless noted
# Sequence of UniProt Q92731 (Q92731 whole entry, looked up): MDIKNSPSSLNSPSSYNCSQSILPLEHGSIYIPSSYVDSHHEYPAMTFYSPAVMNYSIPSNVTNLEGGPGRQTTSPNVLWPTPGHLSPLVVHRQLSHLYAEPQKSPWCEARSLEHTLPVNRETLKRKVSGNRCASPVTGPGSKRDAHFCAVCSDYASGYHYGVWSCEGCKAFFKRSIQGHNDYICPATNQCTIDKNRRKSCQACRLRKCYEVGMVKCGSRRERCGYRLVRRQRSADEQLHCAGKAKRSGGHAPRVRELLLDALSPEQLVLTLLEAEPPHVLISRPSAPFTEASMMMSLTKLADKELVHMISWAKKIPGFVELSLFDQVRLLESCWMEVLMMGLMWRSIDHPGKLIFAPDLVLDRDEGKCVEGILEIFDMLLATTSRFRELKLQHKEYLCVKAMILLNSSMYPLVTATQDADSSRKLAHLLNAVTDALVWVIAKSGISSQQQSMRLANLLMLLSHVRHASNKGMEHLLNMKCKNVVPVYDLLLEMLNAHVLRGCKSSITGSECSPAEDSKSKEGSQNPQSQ
# Procedure, shortened: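 Antagonist mode: compounds added to beta-lactamase reporter HEK293T ER-beta-UAS cells stimulated with E2 (1nM final), 16 hr at 37C. LiveBLAzer B/G FRET substrate, 2 hours room temperature, fluorescence read-out.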
# [4] = qHTS assay to identify small molecule agonists of the androgen receptor (AR) signaling pathway in the presence of an antagonist - cell viability counter screen (AID 1259379); note: nearly all actives have a fitted effect of over 25% in size
# Procedure, shortened: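 Seed MDA-kb2 at 3,000 cells/well; incubate 5 hr, 37C, 0% CO2. Add nilutamide to 3.0uM final, then pin compounds at 15 concentrations. Incubate 16 hr. Add CellTiter-Fluor at 15 hr, read fluorescence after 1 hr.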
# [5] = qHTS assay to identify small molecule antagonists of the sonic hedgehog signaling (Shh) pathway - cell viability counter screen (AID 1259367); note: nearly all actives have a fitted effect of over 55% in size
# Procedure, shortened: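 Cells: 3T3 Gli1-Luc, 2,000/well, 4 hr pre-incubation. Compounds in DMSO, then conditioned medium. Incubation 24 hr, 37C, 5% CO2. CellTiter-Fluor at 23 hr, 1 hr, fluorescence.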
# [6] = qHTS assay to identify small molecule antagonists of the sonic hedgehog signaling (Shh) pathway (AID 1259369; calls by dose curve; note: nearly all actives have a fitted effect of over 45% in size)
# Procedure, shortened: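 For antagonist detection, the reporter line received test compounds together with conditioned medium, incubated 24hr at 37 C, 5% CO2, then luminescence was recorded following 30min room-temperature luciferase reagent incubation.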
# [7] = qHTS assay to identify small molecule agonists of the estrogen receptor beta (ER-beta) signaling pathway - cell viability counter screen (AID 1259380); note: nearly all actives have a fitted effect of over 30% in size
# Procedure, shortened: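 CellTiter-Glo read, 30 min RT, same wells as bla assay; cells ER-beta-UAS-bla HEK293T; 16 hr compound, 37C; medium 2% charcoal-stripped FBS.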
# [8] = qHTS assay to identify small molecule HDAC inhibitors (AID 1259364);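 note: wild-type HCT-116 cells with endogenous class I/II HDAC activity; nearly all actives have a fitted effect of over 45% in size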
# Procedure, shortened: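 Read-out: luminescence of HDAC-Glo I/II reagent, 30 min RT, reflecting class I/II deacetylase activity in whole HCT-116 cells pre-exposed 2 h to DMSO-dissolved compounds.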
# [9] = qHTS assay to identify small molecule HDAC inhibitors - cell viability counter screen (AID 1259365); note: nearly all actives have a fitted effect of over 50% in size
# Procedure, shortened: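 After overnight seeding at 1,500 cells per well, wild-type HCT-116 cultures took up compounds in DMSO for 2hr at 37 C. Viable cell content came from luminescence with CellTiter-Glo.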
# [10] = qHTS assay to identify small molecule agonists or antagonists of the thyroid stimulating hormone receptor (TSHR) signaling pathway - wild type cell line counter screen (AID 1259384; calls by dose curve; for cAMP activity change: % is set by controls: 0 for no effect and ±100 for the full control effect); conditions: HEK293 wild type, cAMP HTRF counter-screen; cAMP activity change: at 92.4 µM (top of the series), hits give high values unless noted
# Procedure, shortened: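 Counter screen in untransfected Hek293: compounds (15-point titration, triplicate) plus phosphodiesterase inhibitor Ro20-1724 added after 18 h plating; 30 min RT. Intracellular cAMP via competitive d2/cryptate immunoassay, 1 h incubation.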
# [11] = qHTS assay to identify small molecule agonists of the sonic hedgehog signaling (Shh) pathway - cell viability counter screen (AID 1259366); note: nearly all actives have a fitted effect of over 50% in size
# Procedure, shortened: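 Same-well cytotoxicity read. Gli1-Luc reporter 3T3 cells; compounds 24hr, 37C/5% CO2; CellTiter-Fluor fluorescence.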
# [12] = target: Estrogen receptor (Homo sapiens) (UniProt P03372); assay: qHTS assay to identify small molecule agonists of the estrogen receptor alpha (ER-alpha) signaling pathway in the presence of an antagonist (AID 1259383; calls by dose curve; note: nearly all actives have a fitted effect of over 15% in size; for activation: top concentration of the series differs between compounds; % is set by controls: 0 for no effect and ±100 for the full control effect)
# Procedure, shortened: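 Stably transfected VM7Luc4E2 reporter cells, kept 5 days in charcoal-stripped serum, received ICI-182,780 at 10.0nM final before compound addition. Following 22hr incubation at 37C and 5% CO2, luciferase signal was read by luminescence.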
# [13] = target: Estrogen receptor beta (Homo sapiens) (UniProt Q92731); assay: qHTS assay to identify small molecule agonists of the estrogen receptor beta (ER-beta) signaling pathway (AID 1259377; active = well fitted activation curve with a large enough effect in the signal ratio in the repeat runs, not every such curve was filed as active; inconclusive = weak or mixed curves, or effect the other way; the % refers to the signal ratio; for activation: % is set by controls: 0 for no effect and ±100 for the full control effect); conditions: ER-beta-UAS-bla HEK293T, beta-lactamase FRET ratio, 16 h
# Procedure, shortened: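 Read-out: beta-lactamase FRET fluorescence. Cell line: ER-beta-UAS-bla HEK293T in 2% charcoal-stripped FBS. Exposure: 16 hr at 37C. Substrate step: 2 h at room temperature.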
# [14] = qHTS assay to identify small molecule antagonists of the estrogen receptor beta (ER-beta) signaling pathway - cell viability counter screen (AID 1259382); note: nearly all actives have a fitted effect of over 55% in size
# Procedure, shortened: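 In this multiplexed counter screen, cells were seeded at 2,000 per well in medium with 2% charcoal-stripped FBS and incubated 6 hr before compound and 1nM final E2 were added. Sixteen hours later, ATP-based luminescence reported viability.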
# [15] = activation: at 92.4 µM (top of the series) unless noted
# Potency is the fitted concentration of half-maximal effect; tags give direction and shape of the fitted curve or compound fluorescence and quenching.
smiles,measurement,setting,value
COCC(=O)O[C@]1(CCN(C)CCCc2nc3ccccc3[nH]2)CCc2cc(F)ccc2[C@@H]1C(C)C,Potency,[1],"inconclusive: 33.5 µM [inhibitor, single point]"
same,Potency,[2],"inconclusive: 5.01 µM [activator, single point]"
same,Potency,[3],active: 11.9 µM
same,Potency,[4],active: 23.7 µM
CC(=O)c1ccccc1,Potency,[1],inactive
CCCCC(CC)CN1C(=O)C2C3C=CC(C3)C2C1=O (stereo not drawn),Potency,[1],"inconclusive: 54.5 µM [inhibitor, single point]"
same,Potency,[5],inconclusive: 54.5 µM [cytotoxic]
same,Potency,[6],"inconclusive: 48.6 µM [inhibitor, partial curve, poor fit]"
same,"activity, negative = inhibition",[3],inconclusive: -25.5%
same,Potency,[7],"inconclusive: 27.3 µM [cytotoxic, single point]"
CCN(CC)c1ccc2c(-c3ccc(S(=O)(=O)O)cc3S(=O)(=O)[O-])c3ccc(=[N+](CC)CC)cc-3oc2c1,Potency,[1],"inconclusive: 14.1 µM [inhibitor, full curve]"
same,Potency,[8],"inconclusive: 39.8 µM [inhibitor, partial curve, poor fit]"
same,Potency,[9],active: 12.6 µM
same,Potency,[10],inconclusive: 23.2 µM
CC(C(=O)O)c1ccc(CC2CCCC2=O)cc1 (stereo not drawn),Potency,[1],inactive
same,Potency,[3],inactive
O=S(=O)(c1cccc2cnccc12)N1CCCNCC1,Potency,[1],"inconclusive: 6.68 µM [inhibitor, full curve]"
same,Potency,[11],"inconclusive: 21.1 µM [cytotoxic, partial curve]"
same,Potency,[6],"inconclusive: 18.8 µM [inhibitor, partial curve]"
same,Potency,[7],"inconclusive: 26.6 µM [cytotoxic, partial curve]"
same,Potency,[12],inactive
C[n+]1ccn(Cc2ccccc2)c1,Potency,[1],"inconclusive: 15.3 µM [inhibitor, partial curve]"
same,Potency,[5],inactive
same,Potency,[6],inactive
same,Potency,[4],"inconclusive: 76.6 µM [cytotoxic, single point]"
OCc1c[nH]c2ccccc12,Potency,[1],"inconclusive: 12.2 µM [inhibitor, full curve]"
same,Potency,[5],"inconclusive: 68.6 µM [cytotoxic, partial curve, poor fit]"
same,activation,[13]; [15],inconclusive: -2.94%
same,Potency,[3],"inconclusive: 34.4 µM [falling, partial curve]"
same,Potency,[4],"inconclusive: 68.6 µM [cytotoxic, partial curve, poor fit]"
same,Potency,[7],"inconclusive: 7.7 µM [cytotoxic, full curve]"
Cc1ccc(O)c(N)c1,Potency,[1],"inconclusive: 30.7 µM [inhibitor, full curve]"
same,Potency,[8],"inconclusive: 61.2 µM [inhibitor, partial curve]"
same,Potency,[11],active: 43.3 µM
same,Potency,[13]; [15],"inconclusive: 21.7 µM [fluorescent, full curve]"
same,Potency,[3],"inconclusive: 24.4 µM [rising, single point]"
same,Potency,[14],"inconclusive: 21.7 µM [cytotoxic, partial curve]"
same,Potency,[12],inactive
c1ccc2[nH]c(-c3cscn3)nc2c1,Potency,[1],inactive
same,activation,[13]; [15],inconclusive: 5.61%
same,activation,[13]; at 42.5 µM (top of the series),inactive: 1.92%
same,activation,[13]; at 92.4 µM (top of the series),inactive: -0.24%
same,Potency,[7],"inconclusive: 77 µM [cytotoxic, single point]"
same,Potency,[12],"inconclusive: 15 µM [activator, partial curve]"
same,cAMP activity change,[10],inconclusive: 4.32%
O[C@@H](COc1cccc2ncccc12)CN1CCN(C2c3ccccc3[C@@H]3[C@H](c4ccccc42)C3(F)F)CC1 (stereo partly drawn),Potency,[1],inactive
same,Potency,[11],"inconclusive: 13.3 µM [cytotoxic, full curve]"
same,Potency,[5],"inconclusive: 13.3 µM [cytotoxic, partial curve]"
same,Potency,[13]; [15],inactive
same,Potency,[3],active: 16.8 µM
CCC(C)n1ncn(-c2ccc(N3CCN(c4ccc(OC[C@H]5CO[C@](Cn6cncn6)(c6ccc(Cl)cc6Cl)O5)cc4)CC3)cc2)c1=O (stereo partly drawn),Potency,[1],"inconclusive: 3.76 µM [inhibitor, full curve]"
same,Potency,[2],"inconclusive: 0.631 µM [activator, partial curve, poor fit]"
same,activation,[13]; [15],inconclusive: 2.91% [at 42.5 µM]
same,Potency,[7],"inconclusive: 2.98 µM [cytotoxic, full curve, poor fit]"
Cc1nc2ccccn2c(=O)c1CCN1CCC(C(=O)c2ccc(F)cc2)CC1,Potency,[1],inconclusive: 29.8 µM [inhibitor]
same,Potency,[6],"inconclusive: 15 µM [inhibitor, partial curve, poor fit]"
same,Potency,[7],"inconclusive: 0.531 µM [cytotoxic, full curve, poor fit]"
same,Potency,[12],inactive
